# Assay results from a collection of fitness landscapes (doi:10.1016/j.celrep.2020.107928).
# The full ranking holds about 81,000 sequences; the median of “one-hybrid fitness for binding NBS DNA” is about -0.1, and the highest 2% start at about 0.36. The list shows a part of the results.
# B1: Caulobacter ParB omega fusion; a variant is named by its letters at X, in order, B8GW30 (parent)
# chain: MESVVVGEPGMSEGRRGLGRGLSALLGEVDAAPAQAPGEQLGGSREAPIEILQRNPDQPRRTFREEDLEDLSNSIREKGVLQPILVRPSPDTAGEYQIVAGERAWRAAQRAGLKTVPIMVRELDDLAVLEIGIIENVQRADLNVLEEALSYKVLMEKFERTQENIAQTIGKSXSHVANXMRLLXLPDEVQSYLVSGELTAXHARAIAAAADPVALAKQIIEGGLSVRETEALARKAPNLSAGKSKGGRPPRVKDTDTQALESDLSSVLGLDVSIDHRGSTGTLTITYATLEQLDDLCNRLTRGI
# Variants of: B1
# Assay: one-hybrid fitness for binding NBS DNA (the Noc-binding site; scaled: cognate 1, non-cognate 0); higher = stronger binding
# Conditions: with NBS DNA site
# Procedure, shortened: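 Selection: bacterial one-hybrid in E. coli USO, HIS3 reporter with the site 19 bp from the promoter, 48 hours at 37°C on M9-minus-histidine plus 0.1 mM IPTG and 5 mM 3-AT. Libraries were Caulobacter ParB with four randomised specificity codons, sequenced on Illumina before and after selection. Fitness is the rescaled log change in variant-to-wild-type read ratio, anchored to the cognate and non-cognate sites.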
row,Variant,one-hybrid fitness for binding NBS DNA
1,KTTS,≤ 0.2
2,ISIG,≤ 0.2
3,ARPL,≤ 0.2
4,HWNY,≤ 0.2
5,TRHC,≤ 0.2
6,GWRT,≤ 0.2
7,DPMS,≤ 0.2
8,AQTM,≤ 0.2
9,RVTE,≤ 0.2
10,ERNP,≤ 0.2
11,NNNG,≤ 0.2
12,AGPY,≤ 0.2
13,TNDM,≤ 0.2
14,GPVT,≤ 0.2
15,QYTC,≤ 0.2
16,KKQC,≤ 0.2
17,VLTP,≤ 0.2
18,PGQN,≤ 0.2
19,LIGV,≤ 0.2
20,NKAR,≤ 0.2
21,ADFY,≤ 0.2
22,SKYG,≤ 0.2
23,SLWI,≤ 0.2
24,TTLE,≤ 0.2
25,DLLW,≤ 0.2

row,Variant,one-hybrid fitness for binding NBS DNA
1,PWYS,≤ 0.2
2,PLMK,≤ 0.2
3,AWPV,≤ 0.2
4,PLRQ,≤ 0.2
5,PHDL,≤ 0.2
6,PKAY,≤ 0.2
7,MINR,≤ 0.2
8,NEEI,≤ 0.2
9,CHGG,≤ 0.2
10,QRSW,0.261
11,SQYS,≤ 0.2
12,QPKN,≤ 0.2
13,NCLA,≤ 0.2
14,SCWT,≤ 0.2
15,WQLA,≤ 0.2
16,SSPS,≤ 0.2
17,SAMI,≤ 0.2
18,DGIT,≤ 0.2
19,MTGG,≤ 0.2
20,NPKT,≤ 0.2
21,ARNC,≤ 0.2
22,INNT,≤ 0.2
23,CCSA,≤ 0.2
24,MMAL,≤ 0.2
25,PQGA,≤ 0.2

row,Variant,one-hybrid fitness for binding NBS DNA
1,QQHA,0.384
2,DHTT,≤ 0.2
3,EIHR,≤ 0.2
4,QVMP,≤ 0.2
5,TAWL,≤ 0.2
6,NLLT,≤ 0.2
7,ELQL,≤ 0.2
8,LIQG,≤ 0.2
9,HIWT,≤ 0.2
10,GDRL,≤ 0.2
11,NSRL,≤ 0.2
12,RKVM,≤ 0.2
13,GVQG,≤ 0.2
14,TCHR,≤ 0.2
15,NTCM,≤ 0.2
16,ALHQ,≤ 0.2
17,MYYW,≤ 0.2
18,ALGT,≤ 0.2
19,HRIW,≤ 0.2
20,NDFI,≤ 0.2
21,GWRH,≤ 0.2
22,GCGS,≤ 0.2
23,FRKA,≤ 0.2
24,HIFT,≤ 0.2
25,QRIK,0.213

row,Variant,one-hybrid fitness for binding NBS DNA
1,QFSL,≤ 0.2
2,GSRY,≤ 0.2
3,QHPH,≤ 0.2
4,AALK,≤ 0.2
5,TLDC,≤ 0.2
6,VPRP,≤ 0.2
7,EAWM,≤ 0.2
8,TYGA,≤ 0.2
9,RHNN,≤ 0.2
10,TMMT,≤ 0.2
11,STIT,≤ 0.2
12,QARE,0.206
13,RKKN,0.252
14,RYAV,≤ 0.2
15,LITW,≤ 0.2
16,RELN,≤ 0.2
17,YLAI,≤ 0.2
18,RCVR,0.349
19,QISQ,≤ 0.2
20,LNVN,≤ 0.2
21,FYWG,≤ 0.2
22,FCPL,≤ 0.2
23,TADH,≤ 0.2
24,YGWR,≤ 0.2
25,PYPH,≤ 0.2

row,Variant,one-hybrid fitness for binding NBS DNA
1,QKPR,0.271
2,KRIW,≤ 0.2
3,GANF,≤ 0.2
4,MWAG,≤ 0.2
5,KRCM,≤ 0.2
6,YKAS,≤ 0.2
7,DHHR,≤ 0.2
8,CAGG,≤ 0.2
9,AWAL,≤ 0.2
10,HGYW,≤ 0.2
11,PKRD,≤ 0.2
12,SAYG,≤ 0.2
13,WQMV,≤ 0.2
14,HHPM,≤ 0.2
15,SHAW,≤ 0.2
16,KTNL,≤ 0.2
17,TALW,≤ 0.2
18,HVQR,≤ 0.2
19,CGLY,≤ 0.2
20,AASV,≤ 0.2
21,WVMW,≤ 0.2
22,DARC,≤ 0.2
23,LRRT,0.342
24,LSHG,≤ 0.2
25,SRFA,≤ 0.2

row,Variant,one-hybrid fitness for binding NBS DNA
1,DHGC,≤ 0.2
2,PLQE,≤ 0.2
3,VPEY,≤ 0.2
4,QNWN,≤ 0.2
5,EIPS,≤ 0.2
6,YRRV,≤ 0.2
7,GYID,≤ 0.2
8,CYDG,≤ 0.2
9,INDN,≤ 0.2
10,RLWK,≤ 0.2
11,WGAF,≤ 0.2
12,HSFS,≤ 0.2
13,PLPD,≤ 0.2
14,CSER,≤ 0.2
15,IRLG,≤ 0.2
16,WTHK,≤ 0.2
17,WHAK,≤ 0.2
18,YGYN,≤ 0.2
19,SQTV,≤ 0.2
20,VTLP,≤ 0.2
21,HQNQ,≤ 0.2
22,YPPR,≤ 0.2
23,YFEC,≤ 0.2
24,PRDT,≤ 0.2
25,TDDN,≤ 0.2

row,Variant,one-hybrid fitness for binding NBS DNA
1,LRDG,≤ 0.2
2,YLCC,≤ 0.2
3,AYLY,≤ 0.2
4,WLCL,≤ 0.2
5,PKYY,≤ 0.2
6,QHTD,≤ 0.2
7,LDGS,≤ 0.2
8,QMWE,≤ 0.2
9,RWYT,≤ 0.2
10,GWLP,≤ 0.2
11,RSFK,≤ 0.2
12,GFMT,≤ 0.2
13,YRSQ,≤ 0.2
14,PGLT,≤ 0.2
15,QNYC,0.218
16,RAFW,≤ 0.2
17,CKRK,≤ 0.2
18,ARLR,≤ 0.2
19,KVDN,≤ 0.2
20,SVSC,≤ 0.2
21,KQRS,0.224
22,TWHC,≤ 0.2
23,DCCG,≤ 0.2
24,RIQF,≤ 0.2
25,LLME,≤ 0.2

row,Variant,one-hybrid fitness for binding NBS DNA
1,LREQ,≤ 0.2
2,GVNR,≤ 0.2
3,VQVG,≤ 0.2
4,PGNT,≤ 0.2
5,LQAW,≤ 0.2
6,IESS,≤ 0.2
7,HWAN,≤ 0.2
8,SNVL,≤ 0.2
9,EYRR,≤ 0.2
10,RWSY,≤ 0.2
11,ASGK,≤ 0.2
12,RIEY,≤ 0.2
13,VESV,≤ 0.2
14,CSLY,≤ 0.2
15,HHNG,≤ 0.2
16,DATT,≤ 0.2
17,RVAN,≤ 0.2
18,TDMF,≤ 0.2
19,RAMS,0.333
20,QGAD,≤ 0.2
